This is one part of the list. At the low end of the ranking the order means little. The protein was read in a cell extract, so binding may be indirect.

The target in this assay is T1, HNF4alpha8 (COS-7 nuclear extract) (UniProt P41235-5).
T1 sequence: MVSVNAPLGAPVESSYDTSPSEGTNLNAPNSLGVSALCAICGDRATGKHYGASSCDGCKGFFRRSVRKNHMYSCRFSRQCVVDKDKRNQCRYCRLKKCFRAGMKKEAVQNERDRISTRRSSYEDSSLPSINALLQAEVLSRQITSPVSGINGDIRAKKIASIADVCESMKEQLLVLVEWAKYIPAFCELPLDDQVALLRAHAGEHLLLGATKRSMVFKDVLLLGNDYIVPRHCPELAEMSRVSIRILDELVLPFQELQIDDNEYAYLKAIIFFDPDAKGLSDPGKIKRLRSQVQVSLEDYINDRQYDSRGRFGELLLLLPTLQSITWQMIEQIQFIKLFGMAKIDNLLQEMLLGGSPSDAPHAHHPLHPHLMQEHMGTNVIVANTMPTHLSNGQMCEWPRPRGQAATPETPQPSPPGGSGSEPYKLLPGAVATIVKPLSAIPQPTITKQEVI
Nature of the assay: protein-binding microarray. To be noted: COS-7 nuclear extract on double-stranded Agilent 4x180k PBM; binding buffer, salt, pH and temperature not given; high values mean tight binding; double strand, one strand shown; sequences stand for … in …GCCTAGGGAGATTAGAGTATCGGTCGA
Take GGGAGGAGGGCAACCTTTGAACTGGGTCTT: the binding signal (log2 normalized intensity) turned out to be 4.84. The value for AGGGGGCGGGCGGACTCCGAGCCATTTTGG was -1.34; that for TACGCTGTCGTTTGCTTAGTCTTATCTGAG was 0.677. Then GTGTGGTGCAGATTCCACACTGGCTAGATA, with -1.22; and AAAGATACTCTCATCACTTAGGATATTCCA, with -1.41; and GACCTTTATGGGAAAAAAAAACCACTGTGT, with 0.594. Then ACCTGTTATTTGCGCCTCCCTAGAGCAGCA, with -1.39; and GTCTTGCTTTGATGTTGATGGTTGCTGACT, with 1.14. For GATTTCATCTAAGGACAAACTTTGTCACTG, the binding signal (log2 normalized intensity) came to 1.46. The value for GAAACACTCTGTTTGTAAAGTCTACAAGTG was 0.85; that for ATTTGAGGGTGACACTGCTCTCTCCAGGGG was -0.308; that for AGGCCGGAAAAGATTAGATTGCTCAGAGGC was -1.04. Then GACACAAAGAGACAAAGCTTTGAAGATGCT, with -1.35. Then ACACTTGTATGACCTTTGTTTTATTGTCAT, with 4.51; and ATAATCAGAGGCCTGATTATCAGGTGCCTG, with 0.101. As to ACCTTGATGCTGGACTTCAGCCTCCAGAAC, the binding signal (log2 normalized intensity) came out at 4.55.

As for TGATAAAGGGGGCAAAGGGCATGGGCAGCT, the binding signal (log2 normalized intensity) came to 4.41. Consider ATGTGCTTCATGGAGAGAATTCCCATCCCA, for which the binding signal (log2 normalized intensity) is -1.31. Then GGTCCCTAGGAGATACGCCTGAACTTTGAT, with 4.18. Then TCTTTAGGCCAAACAAAAATATGGACTTTG, with 6.57; and GTAGGACAGAGTAAAGCCACTGCCTAGATA, with -1.28. The value for TTCCTAACAGTGAATGTTTCGTAATATTTA was -0.755; that for CAAATTAAACAGCATTTGTTTTAAGTTCAT was 0.628. As to ACAGGGTGGCTTTGATCTGGGTGGGGGTGG, the binding signal (log2 normalized intensity) was found to be 0.153.

For the sequence TTTAGATTTTCTCACTCTAAAGGAAGGGAT, the binding signal (log2 normalized intensity) is -1.33. Turning to GGAAAACTACCCCTGCCTAAACAAGGCAGA, the binding signal (log2 normalized intensity) is -1.21. Then ATTCCTTTTTCACTGCTCACAGGTTGTACT, with 2.15; and ATTAAACACAGTTGCCTATGCCCTTTGAAA, with 3.08; and ACATTCCTTGTGTTTTGGGGACAGAAGGCA, with 1.18.

With GAAAGAGGTCAATGTACTTACAGCTGGAAG, the binding signal (log2 normalized intensity) is 1.49. Then AGTCTTGAGTCCCAAAGTCCAAAGGCAGTC, with 3.61; and ACATTCCAGAAAAGGCCTAAAAGGTTATCT, with 0.598; and TTGGAGAATGCCTTTTGTGTAGGAGTACAC, with 1.46.

As for GGTTCTGCAGGTTCATGGGAGAGCACTTGG, the binding signal (log2 normalized intensity) is -0.0597. On to TGACCTTTGCCTCATTCTTATTGCCTCATG, for which the binding signal (log2 normalized intensity) is 4.2.

With CTACAGAACCTCCCTCCCCATCTCCCCAGA, the binding signal (log2 normalized intensity) came out at 5.18. AAGCCCAGAACACTCTACCCCCTCCCACTT: the binding signal (log2 normalized intensity) turned out to be 4.27. Then ACATACCTTAGGCTGTGCATATTGGTTTAC, with 1.36; and TCTGTCTTGGACTGCGAAAGATAAAAGGCC, with 0.327. The value for GAGGATGACCTTCCCTGCAGAAAAGGCCCC was 2.02. On to TTTGTAACTTCTTGGCCTGCATAGCACTTT, for which the binding signal (log2 normalized intensity) came out at 1.28.

Consider GGCACTCCCAGGATAATGGAGAAGATAAGC, for which the binding signal (log2 normalized intensity) was -1.3.

TGTGAGTCACAAACAGTACTGACATCTATC: the binding signal (log2 normalized intensity) was -0.859. As to AGCTCTTTTGAACCCAAGGCCAAACACGGA, the binding signal (log2 normalized intensity) was determined as 1.04. Turning to TTGGTCTGAACCTCATCTGTGTAGAAATTG, the binding signal (log2 normalized intensity) turned out to be 1.49. The value for GATGCAGAACAAGGTAGCCACAGAATGACT was -1.32; that for TGGGTATGTCTGTAGGTAAGCACAAAGTAC was 2.16; that for TTCACATTCCATCATCACGGTGGACATTGT was 3.47. Then CCTTTCATGTACTGTTCAGTTCCTATTTCA, with 0.81; and TATGTGCTGACTGACTCCTGTTACTTCCAC, with 0.0957. Turning to AAGGAATAAAATAGCTGCCTGTGTGTTCTG, the binding signal (log2 normalized intensity) was 0.798. The value for GTGCTGACTAAGAGGAGAAGCAAATGAAAA was -1.33. Then AGATAAATGCCTTAGCTGTGACCATCTCCT, with -1.33. Then AGTCTAACTTTGGACTTTTATGTTAAGATC, with 2.93; and TCCAAACTGCAACCTGATAAGATTTTAGAA, with -1.31; and ATGGACATAGTAACAACCTAAATCAGAGCA, with -1.4. Regarding AAGCGGCTGGCTTTAAGGTCACATAGCAGG, the binding signal (log2 normalized intensity) turned out to be 1.03. Then GGGCCACTCAGTTGAAGTTCCAGAAGACTA, with -1.35; and GTCAAAGGTTGATGGTATGTTTCAGCCAAG, with 0.0323. As for TGCAAGGCTGTTGGCAGATTAGATATATCT, the binding signal (log2 normalized intensity) was -0.884. On to GTCACTGTATGCCCGAAAGACGCGGAGCGG, for which the binding signal (log2 normalized intensity) is 0.452. Then TTTGAGGGCTCAAAGGTTACCACCCAGGAG, with 4.22.

Take AAGGTGAAGCCCAGCAGCTCCAGGAGACGT: the binding signal (log2 normalized intensity) was -1.04. The value for GCACGTTAGAGAAAAAGCCCAAGAAACTTC was -1.29; that for GCAATAAACTCCGTTATCACTCCTGGTTGG was -0.605; that for CTTGGCTGTGTCCCTTGACCAAAGGTCACT was 7.67. Then TGGAATACAGCAGGGTAGAAAAGAGTTAAA, with -1.22; and CTCAGTATGGCAACCTTTGTCCTGCTGAGG, with 4.48; and AGGCTCAGTGGGCGTTGACTGATCCCTCTG, with 0.99. The value for ATGGCTGCAGCTCTTCCACGTGAGATAAGC was -1.28.

Regarding GTAGACTAAAACCCATATCTGACTGATGCT, the binding signal (log2 normalized intensity) was -1.35.

As for GTGTGTCTGTAGTTTTCGTTGTCTAATCCT, the binding signal (log2 normalized intensity) came out at 1.29.

In the case of GATTGCGCCACTGCATTCCAGCCTGGGGCA, the binding signal (log2 normalized intensity) is -1.29.

The record behind these values is PMC10726135.
